# Test results: article PMC9911399, “Two distinct binding modes provide the RNA-binding protein RbFox with extraordinary sequence specificity”
# Numbering of substitutions follows the chain as printed; changes in the protein carry UniProt numbers. The list shows a part of the results.
# T1: RBFOX1 RRM RbFoxmut (Fox-RRM*) (Homo sapiens, UniProt Q9NWB1 109-208, R118D;E147R;N151S;E152T)
# T1 sequence: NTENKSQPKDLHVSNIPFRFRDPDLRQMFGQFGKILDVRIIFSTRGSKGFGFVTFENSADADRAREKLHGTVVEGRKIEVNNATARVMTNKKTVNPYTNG
# B1: UGCCGCG (DNA:RNA)
# RNA: GGGAGACCGGAAUUCAGAUUGUCCUGCCGCGUUAAAUCCCGUCGUAGCCACCA
# DNA 1: CAATCTGAATTCCGGTCTCCC
# DNA 2: TGGTGGCTACGACGGGATT
# B2: CCUCGCU (DNA:RNA)
# RNA: B1 RNA with U25C, G26C, C27U, G31U
# DNA 1: CAATCTGAATTCCGGTCTCCC
# DNA 2: TGGTGGCTACGACGGGATT
# B3: ACCAAUU (DNA:RNA)
# RNA: B1 RNA with U25A, G26C, C28A, G29A, C30U, G31U
# DNA 1: CAATCTGAATTCCGGTCTCCC
# DNA 2: TGGTGGCTACGACGGGATT
# B4: GAGUUUG (DNA:RNA)
# RNA: B1 RNA with U25G, G26A, C27G, C28U, G29U, C30U
# DNA 1: CAATCTGAATTCCGGTCTCCC
# DNA 2: TGGTGGCTACGACGGGATT
# B5: UAUGAUC (DNA:RNA)
# RNA: B1 RNA with G26A, C27U, C28G, G29A, C30U, G31C
# DNA 1: CAATCTGAATTCCGGTCTCCC
# DNA 2: TGGTGGCTACGACGGGATT
# B6: ACCUUAC (DNA:RNA)
# RNA: B1 RNA with U25A, G26C, C28U, G29U, C30A, G31C
# DNA 1: CAATCTGAATTCCGGTCTCCC
# DNA 2: TGGTGGCTACGACGGGATT
# B7: UCCCCUG (DNA:RNA)
# RNA: B1 RNA with G26C, G29C, C30U
# DNA 1: CAATCTGAATTCCGGTCTCCC
# DNA 2: TGGTGGCTACGACGGGATT
# B8: GCGACUU (DNA:RNA)
# RNA: GGGAGACCGGAAUUCAGAUUGUCCGCGACUUUUAAAUCCCGUCGUAGCCACCA
# DNA 1: CAATCTGAATTCCGGTCTCCC
# DNA 2: TGGTGGCTACGACGGGATT
# B9: GACAAUU (DNA:RNA)
# RNA: B8 RNA with C26A, G27C, C29A
# DNA 1: CAATCTGAATTCCGGTCTCCC
# DNA 2: TGGTGGCTACGACGGGATT
# B10: UCUCGCC (DNA:RNA)
# RNA: B1 RNA with G26C, C27U, G31C
# DNA 1: CAATCTGAATTCCGGTCTCCC
# DNA 2: TGGTGGCTACGACGGGATT
# B11: UCUGUUC (DNA:RNA)
# RNA: B8 RNA with G25U, G27U, A28G, C29U, U31C
# DNA 1: CAATCTGAATTCCGGTCTCCC
# DNA 2: TGGTGGCTACGACGGGATT
# B12: CGCAAGU (DNA:RNA)
# RNA: B8 RNA with G25C, C26G, G27C, C29A, U30G
# DNA 1: CAATCTGAATTCCGGTCTCCC
# DNA 2: TGGTGGCTACGACGGGATT
# B13: AGCUGUU (DNA:RNA)
# RNA: B1 RNA with U25A, C28U, C30U, G31U
# DNA 1: CAATCTGAATTCCGGTCTCCC
# DNA 2: TGGTGGCTACGACGGGATT
# B14: UAUAGUA (DNA:RNA)
# RNA: B8 RNA with G25U, C26A, G27U, C29G, U31A
# DNA 1: CAATCTGAATTCCGGTCTCCC
# DNA 2: TGGTGGCTACGACGGGATT
# B15: UCGAAUA (DNA:RNA)
# RNA: B8 RNA with G25U, C29A, U31A
# DNA 1: CAATCTGAATTCCGGTCTCCC
# DNA 2: TGGTGGCTACGACGGGATT
# B16: AUAUUUC (DNA:RNA)
# RNA: B8 RNA with G25A, C26U, G27A, A28U, C29U, U31C
# DNA 1: CAATCTGAATTCCGGTCTCCC
# DNA 2: TGGTGGCTACGACGGGATT
# B17: CCGCCCA (DNA:RNA)
# RNA: B8 RNA with G25C, A28C, U30C, U31A
# DNA 1: CAATCTGAATTCCGGTCTCCC
# DNA 2: TGGTGGCTACGACGGGATT
# B18: UAGUGCA (DNA:RNA)
# RNA: B1 RNA with G26A, C27G, C28U, G31A
# DNA 1: CAATCTGAATTCCGGTCTCCC
# DNA 2: TGGTGGCTACGACGGGATT
# B19: GGGGUUG (DNA:RNA)
# RNA: B8 RNA with C26G, A28G, C29U, U31G
# DNA 1: CAATCTGAATTCCGGTCTCCC
# DNA 2: TGGTGGCTACGACGGGATT
# B20: AACAUCU (DNA:RNA)
# RNA: B8 RNA with G25A, C26A, G27C, C29U, U30C
# DNA 1: CAATCTGAATTCCGGTCTCCC
# DNA 2: TGGTGGCTACGACGGGATT
# Molecular target: T1, RBFOX1 RRM RbFoxmut (Fox-RRM*)
# Experiment: EMSA; HiTS-Eq, 1 nM pool, 10 min; buffer printed only for the single-RNA assays: 10 mM Tris pH 7.5, 150 mM NaCl, 3.4 mM EDTA, 0.001% NP-40, 30 C
# Conditions: tags: His6 N-terminal (pET28a); label: 5' 32P
# Procedure, shortened: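 Purified wild-type or mutant RbFox RRM at increasing concentrations was equilibrated with 1 nM of 5′-radiolabelled RNA carrying 7 randomized nucleotides for 10 min in 50 µL. Unbound RNA was separated by 8% native PAGE and sequenced. Relative association constants came from read-count changes of each RNA species compared with the control reaction, normalised to the cognate motif.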
row,Binder,binding signal
1,B1,0.111 KA relative to UGCAUGU
2,B2,0.0969 KA relative to UGCAUGU
3,B3,0.0538 KA relative to UGCAUGU
4,B4,0.361 KA relative to UGCAUGU
5,B5,0.046 KA relative to UGCAUGU
6,B6,0.107 KA relative to UGCAUGU
7,B7,0.0913 KA relative to UGCAUGU
8,B8,0.0621 KA relative to UGCAUGU
9,B9,0.0366 KA relative to UGCAUGU
10,B10,0.146 KA relative to UGCAUGU
11,B11,0.104 KA relative to UGCAUGU
12,B12,0.126 KA relative to UGCAUGU
13,B13,0.0994 KA relative to UGCAUGU
14,B14,0.118 KA relative to UGCAUGU
15,B15,0.13 KA relative to UGCAUGU
16,B16,0.0915 KA relative to UGCAUGU
17,B17,0.0565 KA relative to UGCAUGU
18,B18,0.187 KA relative to UGCAUGU
19,B19,0.609 KA relative to UGCAUGU
20,B20,0.0476 KA relative to UGCAUGU
